Laboratory results published in paper PMC7819943, “Rice protein-binding microarrays: a tool to detect cis-acting elements near promoter regions in rice”.
Some of the results follow.

What follows are sequences tested against T1, OsWOX13 (Oryza sativa, UniProt Q5QMM3 1-267) (assay: protein-binding microarray (RPBM); PBS, 2% BSA, 51.3 ng/ul salmon testes DNA, 50 uM zinc acetate, 200 nM TF, 25 C, 1 h; high values mean tight binding). Conditions: protein: recombinant; tags: N-terminal polyhistidine and DsRed monomer fusion (pET32a); label: CyDye5-dUTP incorporated in the synthesized complementary strand; 3' TTTTT single-stranded linker to array surface; dsDNA, one strand shown.
T1 sequence: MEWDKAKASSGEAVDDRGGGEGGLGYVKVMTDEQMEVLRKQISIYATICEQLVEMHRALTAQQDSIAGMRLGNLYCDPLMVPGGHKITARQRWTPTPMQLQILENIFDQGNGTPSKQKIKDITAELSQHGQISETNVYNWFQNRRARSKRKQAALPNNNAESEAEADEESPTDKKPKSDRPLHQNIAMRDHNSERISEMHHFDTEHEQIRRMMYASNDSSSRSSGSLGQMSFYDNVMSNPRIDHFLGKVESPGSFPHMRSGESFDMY
Summary of the method: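 Binding signal here means per-feature fluorescence intensity in arbitrary units. The values were read on an Axon 4000B scanner after a custom Agilent array, double-stranded by primer extension with Cy5-dUTP, was incubated with 200 nM protein at 25 °C for 1 h in PBS with 2% BSA, salmon testes DNA and 50 µM zinc acetate, then washed. The proteins were transcription factors with an N-terminal polyhistidine tag and DsRed, expressed in E. coli BL21-CodonPlus and purified on Ni–NTA.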

Sequence | binding signal
ACAAATTTGGAATCATGGGCATTCCAGTAATTTCACACCTCGGAGTCACCTAGTGCAG | 9450 fluorescence intensity (a.u.)
ACCCGAGCCCTGACTGCAATTTACTCCGACGTGACCACTGCGGAGTCACCTAGTGCAG | 3800 fluorescence intensity (a.u.)
TCGTAAATTAGTCCAGAGTTTTGGAATAGGTTTTATCATTCGGAGTCACCTAGTGCAG | 3640 fluorescence intensity (a.u.)
CAATGATATGTCAATTAGATATGTCATGCTAGTTTCTTAGCGGAGTCACCTAGTGCAG | 30100 fluorescence intensity (a.u.)
AAATAACAATAAATTAATCTACTTTCACATATGAACAACACGGAGTCACCTAGTGCAG | 7040 fluorescence intensity (a.u.)
TGCAAACTGCAATTTGAAGCAAATTAAAGATTGTGAAAGTCGGAGTCACCTAGTGCAG | 14400 fluorescence intensity (a.u.)
AGTCCAAATTACTACATATGTTCTTATATATCATGATGGTCGGAGTCACCTAGTGCAG | 4600 fluorescence intensity (a.u.)
ATTCATCACGGCGAATTGACGGGCCACAATTTTAACAGTACGGAGTCACCTAGTGCAG | 3800 fluorescence intensity (a.u.)
CACCAATCAGGGTTCCAAGTAGAAGAGGTGGGCAGAGAGCCGGAGTCACCTAGTGCAG | 6870 fluorescence intensity (a.u.)
GAATAATCAATTAAAAGGTTACATTAGTGTAAAGTATGACCGGAGTCACCTAGTGCAG | 16400 fluorescence intensity (a.u.)
ATTAACAGGATCTATATCACATGGAAAATATGAATACAGGCGGAGTCACCTAGTGCAG | 5830 fluorescence intensity (a.u.)
ATATATATATATATATATATATATATCCTATTATTTCACTCGGAGTCACCTAGTGCAG | 29900 fluorescence intensity (a.u.)
TAGTCAACAATTATTGAATACTCCCATAGCGTACTAGTAGCGGAGTCACCTAGTGCAG | 4000 fluorescence intensity (a.u.)
AATGATTACAACCTACCTCTTCTCAGCGGGGTGTCCATTACGGAGTCACCTAGTGCAG | 15200 fluorescence intensity (a.u.)
AGCCTTCCATGATTATTTGAGAGATATTTAGACTATCATTCGGAGTCACCTAGTGCAG | 4000 fluorescence intensity (a.u.)
AGTACTAAATTAAATCATTTGTGGGAAGCTGGCGAGCCCGCGGAGTCACCTAGTGCAG | 12800 fluorescence intensity (a.u.)
GCACTCCATCCTATCCGATCCGATCCGTCCATCACAACATCGGAGTCACCTAGTGCAG | 4020 fluorescence intensity (a.u.)
CCTGATAATCCTGTCTAGATTGCTCCATCCTGGTGCTTGGCGGAGTCACCTAGTGCAG | 10100 fluorescence intensity (a.u.)
TCTCAATCATTTATACTACACTAATTAACCAAGGTCATATCGGAGTCACCTAGTGCAG | 27100 fluorescence intensity (a.u.)
CATACCCATATAATTGACTTGTAGCATTTATAGTTTTGTACGGAGTCACCTAGTGCAG | 5530 fluorescence intensity (a.u.)
TATATATATATATATATATATATCCAGCTAATCTCTCTCCCGGAGTCACCTAGTGCAG | 23200 fluorescence intensity (a.u.)

Sequence | binding signal
AGTCCTTTAATCTAAATAATTTTGGTCGGCGTTACTTTATCGGAGTCACCTAGTGCAG | 4040 fluorescence intensity (a.u.)
TGCTAATGAATCTAGACATATAATTAGCATCAATATAAATCGGAGTCACCTAGTGCAG | 14200 fluorescence intensity (a.u.)
AAAGACAAATTTAGATATAAACAGTACGCTACTATTCATACGGAGTCACCTAGTGCAG | 3170 fluorescence intensity (a.u.)
ATAATAAATCATAAAAGTTTGACTAAATCTTATCTTAATACGGAGTCACCTAGTGCAG | 5610 fluorescence intensity (a.u.)
TTTTGAATGATCTAATACTTTGGACATCAACATTTTGTTGCGGAGTCACCTAGTGCAG | 3250 fluorescence intensity (a.u.)
TGGTCTATAATTAACCTATCTGTAAAATCCATTGCCTTTTCGGAGTCACCTAGTGCAG | 4400 fluorescence intensity (a.u.)
AGTATTAAATTGTATATTTAATATACAGAGGTACTCCCTCCGGAGTCACCTAGTGCAG | 12700 fluorescence intensity (a.u.)
TAAAATAAATTATTATTCAATTACATCTCTTCTCTCTTCTCGGAGTCACCTAGTGCAG | 13400 fluorescence intensity (a.u.)
CAACGGTCGATCAGCCGGTAATTGATCATATTTATCATTTCGGAGTCACCTAGTGCAG | 5590 fluorescence intensity (a.u.)
CACCAAAATTGGAAGTTTGGTTAAAATTGGAACGATGTGACGGAGTCACCTAGTGCAG | 5550 fluorescence intensity (a.u.)
TTGACTTGTACATAGTAATGATTGGCAGGTAATGACGTACCGGAGTCACCTAGTGCAG | 24100 fluorescence intensity (a.u.)
CGTGTGGTTGATTGTGTGTGCGAGCCGAATGCTGCCTACTCGGAGTCACCTAGTGCAG | 5510 fluorescence intensity (a.u.)
ACTAAATTTAGTTAATACATAAGAAATCCTACCAAAATTTCGGAGTCACCTAGTGCAG | 4390 fluorescence intensity (a.u.)
CGTCGCTCAATTGGTTGTCTCCTGTGTCATCCCGGATTATCGGAGTCACCTAGTGCAG | 3840 fluorescence intensity (a.u.)
AGATGATCTACTCTGTAAATTATCACGGTGAGCAGACAGGCGGAGTCACCTAGTGCAG | 4940 fluorescence intensity (a.u.)
AAATCCCTGCTGATTGGAACGTTTTGACTAACTGTTTGGACGGAGTCACCTAGTGCAG | 28800 fluorescence intensity (a.u.)
AACATTGATTATTAAATCGTTAAGGACACATCATATACAACGGAGTCACCTAGTGCAG | 27600 fluorescence intensity (a.u.)
AGGTCATTTATCTATAACTAATTAACCGGTCACATCTACTCGGAGTCACCTAGTGCAG | 12200 fluorescence intensity (a.u.)
ATTAATTTAGATGTTGTATTCATCAACCATCTCGGTCATCCGGAGTCACCTAGTGCAG | 16100 fluorescence intensity (a.u.)
AAACAAATTACATATTCCACCTATAAACTGTGAGCTGAATCGGAGTCACCTAGTGCAG | 7810 fluorescence intensity (a.u.)
ATTCACATATAGATTGGAAAACAAAGTAACATTTATAAAGCGGAGTCACCTAGTGCAG | 3820 fluorescence intensity (a.u.)

Sequence | binding signal
TAACTAACTCTACCTAATTAATAGATATATTGACATGTCACGGAGTCACCTAGTGCAG | 18200 fluorescence intensity (a.u.)
CTATAATTATTTGTCGACTAAATCTGCCTTTCATCTTTCTCGGAGTCACCTAGTGCAG | 21400 fluorescence intensity (a.u.)
CCCACACGATTGACGCCGAGATTCGTGCTCTTGTACATAACGGAGTCACCTAGTGCAG | 7210 fluorescence intensity (a.u.)
ATTACTGCTAATTAAAATGTGCAATGATATCTCTGATTTTCGGAGTCACCTAGTGCAG | 10300 fluorescence intensity (a.u.)
GCAAATTGACATGTGCCATGGAGTATGGCAAGAAAAGATGCGGAGTCACCTAGTGCAG | 46200 fluorescence intensity (a.u.)
ACTTGACAGGTGACACATTGTACATCTATGAGTTGCGGGTCGGAGTCACCTAGTGCAG | 28000 fluorescence intensity (a.u.)
CCCAGGTAATTACGAACTAGTCCTTCTCCAGCCCGGCGACCGGAGTCACCTAGTGCAG | 25000 fluorescence intensity (a.u.)
ACTAATATTCAATTAATCATATCGCTAGTCCTACTAATAGCGGAGTCACCTAGTGCAG | 20500 fluorescence intensity (a.u.)
ATTAACACAAATCATACTGATCGTTCCGCACAGGAAGATACGGAGTCACCTAGTGCAG | 11300 fluorescence intensity (a.u.)
GATAAAGAGAGATAATTATATTAAGGTTTGATTAAGTTAACGGAGTCACCTAGTGCAG | 3680 fluorescence intensity (a.u.)
TGAGGTGATTGTGGTTGCAAAAGAGAGAGAATCTGGATGTCGGAGTCACCTAGTGCAG | 12900 fluorescence intensity (a.u.)
AATAAACTGTGTCTATATTTATAATACTATAATATATCGTCGGAGTCACCTAGTGCAG | 4270 fluorescence intensity (a.u.)
TACTACTAATTATTGTCTTCTTAGTAATCACCAAGTGTGCCGGAGTCACCTAGTGCAG | 20700 fluorescence intensity (a.u.)
AAACTTAATAGGCTATAATAAGCGGACTGTATAAGTTTGTCGGAGTCACCTAGTGCAG | 5760 fluorescence intensity (a.u.)
AGCTATAAATTTTCGTGTTTAATTTTAATCGTTCATTTTACGGAGTCACCTAGTGCAG | 5370 fluorescence intensity (a.u.)
AATGGCTGTTTGTTCCTTGATTGCCACGTCTCTTTCCATCCGGAGTCACCTAGTGCAG | 10300 fluorescence intensity (a.u.)
CGCTAATTAAGCTTAACGAAAATTATGGAGTATTAATCCACGGAGTCACCTAGTGCAG | 36500 fluorescence intensity (a.u.)
TTAACTTGTGATTAATTAAGTATTAGCCTAAAAGAGCTTTCGGAGTCACCTAGTGCAG | 20700 fluorescence intensity (a.u.)
ATGTGCAAATGATTGGGTTCGTTTCGTTCTGGCAATCTAGCGGAGTCACCTAGTGCAG | 24300 fluorescence intensity (a.u.)
AGGCTAACAGCCAATCAAGTTTTGGATTAAACGGTTAAACCGGAGTCACCTAGTGCAG | 19500 fluorescence intensity (a.u.)
TTACAGTGTAATTACATGCAAGTTACAGTGTAATTACACTCGGAGTCACCTAGTGCAG | 6140 fluorescence intensity (a.u.)

Sequence | binding signal
AATTAAGAAATTAGATAGGATTATACAAGGGATGGTTGTGCGGAGTCACCTAGTGCAG | 3740 fluorescence intensity (a.u.)
GGAAGCTAGTGATTGCCGGTGGCCTAAGGAGTTTGTTGTCCGGAGTCACCTAGTGCAG | 3680 fluorescence intensity (a.u.)
TTTAAATTTTAATGATCGGTGATTTTGTGCAGGGAAAACGCGGAGTCACCTAGTGCAG | 24200 fluorescence intensity (a.u.)
TTCCATCAATCAAAACTTTCCTACACACAAACTTCCAACTCGGAGTCACCTAGTGCAG | 14100 fluorescence intensity (a.u.)
CGTTAACTTTCGACTAATAATCATACTAACTATATATACTCGGAGTCACCTAGTGCAG | 6830 fluorescence intensity (a.u.)
ACATGATGACCTTAAATTCGACTAATATGAAAAGAAACACCGGAGTCACCTAGTGCAG | 5080 fluorescence intensity (a.u.)
CCTGATTTTAATAATGATACATCCAAACTAAAATCACCAACGGAGTCACCTAGTGCAG | 32000 fluorescence intensity (a.u.)
GCATGTTATTAATTAAGTATTAATAATTTAGAACTTAAAACGGAGTCACCTAGTGCAG | 6360 fluorescence intensity (a.u.)
TACATCCCTACTAATTGTGTCATGTATCAATAATGATATGCGGAGTCACCTAGTGCAG | 3560 fluorescence intensity (a.u.)
CTAATATGGATAGATTGAAACATCAAGGACTAAACTGAGCCGGAGTCACCTAGTGCAG | 27800 fluorescence intensity (a.u.)
ATTCGTGCTGTTTAAAATTTTAATTAGGAGGTGAATTAAACGGAGTCACCTAGTGCAG | 6560 fluorescence intensity (a.u.)
GTCCAAGTCATCAATAATTAGACTTTTCAACACATGACTGCGGAGTCACCTAGTGCAG | 10800 fluorescence intensity (a.u.)
GCACGTGTGATTACACTTTCAATAGAAAAGTACTTCATCCCGGAGTCACCTAGTGCAG | 5480 fluorescence intensity (a.u.)
CGCAAAATAACTGGCAGACTGAATTTAGTCTTATCACCTTCGGAGTCACCTAGTGCAG | 12700 fluorescence intensity (a.u.)
ATAGAAAATATTTAATGCTAATTAGTAGGCTGCGATTGTACGGAGTCACCTAGTGCAG | 6740 fluorescence intensity (a.u.)
AAAGATTATCCGTAATCTTGCTGATGCTCTCACACCCCTTCGGAGTCACCTAGTGCAG | 3630 fluorescence intensity (a.u.)
CTTCTGATCAGATTCAGATTGCCAACACTGCAACCTTCTGCGGAGTCACCTAGTGCAG | 7710 fluorescence intensity (a.u.)
ATTGAAAATCATTAATTAATTAATTAAGAACACCATGAACCGGAGTCACCTAGTGCAG | 40400 fluorescence intensity (a.u.)
GAACTAAAATGAGGATAAAATGATTTTAGACTTGGGCGGCCGGAGTCACCTAGTGCAG | 4260 fluorescence intensity (a.u.)
GAAACAGATTTTCTCAGCTAATCGCAACAATCATGTCTGACGGAGTCACCTAGTGCAG | 4600 fluorescence intensity (a.u.)
AGGGATTTTAATTGGGTAGTACTAATGCGCGGGTGTCACCCGGAGTCACCTAGTGCAG | 11000 fluorescence intensity (a.u.)
